From the supplement of paper PMC11417369
The other results are listed elsewhere or left out.

test system: PfSIP2 AP2 domain 1 (GST-tagged); experiment: gcPBM binding intensity (ln(normalized median fluorescence intensity)); higher = stronger DNA binding
Outline: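 Probes on an Agilent 4 × 180k array were primer-extended, double-stranded and 36 bp long, taken from intergenic genomic regions, with negative controls added. GST-tagged P. falciparum DNA-binding domains from E. coli, about 25 μg on average, were applied to the array for 1 h in 1× PBS containing 1% milk, 0.2 mg/ml BSA, 0.5% salmon testes DNA and 0.03% Triton X-100. Binding intensity, obtained after Alexa488 anti-GST antibody detection and a 488 nm scan, is the highest Masliner-normalised natural-log median intensity across replicate spots of either probe orientation.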

| Sequence | gcPBM binding intensity (ln) |
| --- | --- |
| TTTTATTTTATATAACAACAAAATGGAAATATATAT [GTGCAC_negctrl_site71] | 7.19 |
| GTCAATATTTAGATATGTACTAAGGAGTGCTATATA [XGTACX_site222] | 7.29 |
| TAAATGAAAATAAATTAACACACAATTTTAATATTG [CACACA_site8360] | 6.55 |
| ATATTATGAAGGGATATTTTCAAAAATATTAGGAGA [CACACA_negctrl_site942] | 6.92 |
| CAATTTTTATGTGTGTGTACTCATTTGTTTTATAAA [XGTACX_site406] | 7.42 |
| TTGGAATAATATAAATAAATAAATATATATATATAT [CACACA_negctrl_site900] | 9.05 |
| ATACAACAGATATATACACACATATAACAATAATAA [CACACA_site7560] | 7.16 |
| AAAAAAAAAAAATGTGCACACGCGTACACCCAAAAA [CACACA_site8614] | 9.45 |
| TTTCTTTTTGTTCGTGTACACACATGAAATTTATAA [CACACA_site8466] | 7.42 |
| GTAATAAATTAAATATGTACATATTAAAATTAAGGA [XGTACX_site2290] | 7.27 |
| ATTGATACATCCAATACACACTACAGATAATGATGT [CACACA_site5098] | 6.97 |
| TGCTACATAATATGTACACACATATACATATTTATA [CACACA_site6545] | 7.26 |
| GTATGATTAAATAAAGGTACACTTATATTTATTTAT [XGTACX_site6966] | 7.32 |
| TATCACATTTATGAGAGTACATAATTAATTCATGAT [XGTACX_site7850] | 6.98 |
| GAATTAATTTTAAAACGTACATGGGTGTATTTACAC [XGTACX_site5939] | 7.31 |
| CATAATACAAATGTGATACCTGAAAATGACTTATTA [CACACA_negctrl_site994] | 6.7 |
| TTCTTTTTTGTAATAACACACACACTAACAGAAAAA [CACACA_site8646] | 7.54 |
| ATTAAATACATTAACACACACACAAATAAATACATA [CACACA_site5583] | 7.01 |
| TTTTATTATTTGTCTTGTACTCATTGTAAGAGTATG [XGTACX_site1538] | 7.33 |
| GACAGATTATAGCATAGTACTCATACATACATACAT [XGTACX_site1252] | 8.08 |
| TACATACATACATACACACACACATCTATATTTATA [CACACA_site6171] | 8.26 |
| TTTCAAAAATTATTTTGTACATATAATTAATATACG [XGTACX_site512] | 6.98 |

| Sequence | gcPBM binding intensity (ln) |
| --- | --- |
| AATTTCTTCCATTGTAGTACTCAATTTTTTTTTGTT [XGTACX_site5847] | 7.21 |
| GTGTAATATTATATATATATATATAATATATATACA [CACACA_negctrl_site263] | 7.31 |
| CACATATACAAAAAGAAATGTTTAGTTGAAAATTAA [CACACA_negctrl_site1407] | 6.67 |
| ATTTAAAAGTTGGTAGTGCATTAAAAATAACAAAAA [GTGCAC_site9835] | 8.96 |
| TTCCCTTATTTTGTATGTACACAATTTATCATGTTG [XGTACX_site2896] | 7.18 |
| ATATATATATATGCATGTACATATATTTGTTATATC [XGTACX_site3197] | 9.3 |
| AATAGATATATAAATACACACAAACATACCTATATA [CACACA_site7823] | 6.86 |
| AAACAAAGGGAACATGTGCACTTACAAAAAAAAAGA | 9.49 |
| TCACACCTTTTTGGTTGTACTTAAATTTCTTTTTTT [XGTACX_site6438] | 7.03 |
| ATTTATTTTAATTTTTTTTTTTCTCTTTTGGATCTA [CACACA_negctrl_site1408] | 6.56 |
| TGTAATATGAAATGTGTACACACGCACCCACAAAAA [CACACA_site8948] | 10.9 |
| TTCTCAAAGTTTACGTGTACATAAATTATATAAATG [XGTACX_site2622] | 7.23 |
| ATTAGGCATATTTTCTGTACACAATAATAAAAAAAA [XGTACX_site3957] | 7.42 |
| AATGAATTTAATTCTACTATTTTTTTTTTAAATATT [XGTACX_negctrl_site296] | 6.63 |
| TAGTAAAAGATATACACACACCAAAAAATATAATTA [CACACA_site7142] | 6.99 |
| TATATATGGGTACTAATTCCTTTAATTTCTTTAATT [CACACA_negctrl_site949] | 6.82 |
| AATTATATTCAAAATGGTACACACAATATTTAATTG [XGTACX_site5521] | 6.93 |
| AAAAAAAAATTAGGGGTGCCATTTGCTGCTGTGCTT [GTGCAC_site9913] | 8.6 |
| TTTTGTATTTCTCACACACACATAAGTAAACAATAA [CACACA_site5105] | 7.32 |
| ATTAATATGAATAAAACACACATATATAACTTGTAA [CACACA_site6989] | 6.79 |
| AATTATACTCACGTTACACACACACTATAAATATAT [CACACA_site7863] | 7.48 |
| AAAAATTTGGCATACACACACACACGCACACGCACA [CACACA_site6422] | 8.03 |
